Results published in PubChem BioAssay AID588342 (National Center for Advancing Translational Sciences (NCATS), 2011).
In all, about 360,000 compounds went through this assay and about 25,000 (6.9%) were called active. The shares of active, inactive and inconclusive entries below differ from those in the screen. Calls come from the whole dose curve; as a rule, active = well fitted inhibition curve with a large enough effect; inconclusive = small, poorly fitted or top-dose-only effect; inactive = flat fitted curve, though single readings scatter. A potency beside an inconclusive call is a rough fit, not a confirmed value.

Each compound was assayed against Luciferin 4-monooxygenase (Photinus pyralis) (UniProt P08659) (assay: qHTS profiling assay for firefly luciferase inhibitor/activator using purifed enzyme and Km concentrations of substrates (counterscreen for miR-21 project)). Settings: purified FLuc, luminescence inhibition; series mostly up to 57.5 µM; activity change, negative = inhibition: at the top concentration.
How it was run: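 Biochemical qHTS of compounds, final roughly 60 µM downward over six points, against 10 nM purified firefly luciferase using Km concentrations of substrates (10 uM D-luciferin, 10 uM ATP) in Tris acetate pH 7.5 buffer; luminescence output.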
Note: nearly all actives have a fitted effect of over 55% in size.
Potency is the fitted concentration of half-maximal effect; tags give direction and shape of the fitted curve.
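Throughout, for activity change, negative = inhibition: plate controls were vehicle for no effect and reference inhibitor for full effect.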

Chain of UniProt P08659 (P08659 whole entry, looked up): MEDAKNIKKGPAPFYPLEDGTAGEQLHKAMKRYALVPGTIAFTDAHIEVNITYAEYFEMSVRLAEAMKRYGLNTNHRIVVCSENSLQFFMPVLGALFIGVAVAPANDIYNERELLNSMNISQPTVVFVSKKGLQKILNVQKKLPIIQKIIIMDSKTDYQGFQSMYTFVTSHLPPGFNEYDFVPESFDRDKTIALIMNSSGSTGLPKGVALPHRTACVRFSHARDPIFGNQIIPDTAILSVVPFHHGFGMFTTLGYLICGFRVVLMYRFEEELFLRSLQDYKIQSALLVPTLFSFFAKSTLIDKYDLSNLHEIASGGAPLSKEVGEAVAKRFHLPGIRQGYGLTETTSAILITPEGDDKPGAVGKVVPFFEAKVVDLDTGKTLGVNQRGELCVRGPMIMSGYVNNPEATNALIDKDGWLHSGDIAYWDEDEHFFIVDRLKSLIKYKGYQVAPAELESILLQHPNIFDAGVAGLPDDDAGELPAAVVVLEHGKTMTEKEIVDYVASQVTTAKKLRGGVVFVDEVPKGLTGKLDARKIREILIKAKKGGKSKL

Structure (SMILES)	Potency	activity change, negative = inhibition
COc1cc(OC)cc(C(=O)Nc2ccc3nc4n(c(=O)c3c2)CCCC4)c1	inconclusive: 9.53 µM [inhibitor, partial curve]	
O=C(CSc1ccccc1C(=O)O)c1ccccc1	inconclusive: 26.9 µM [inhibitor, single point]	
CCc1ccc(NC(=O)Cn2cccc2)cc1	inconclusive: 21.3 µM [inhibitor, partial curve, poor fit]	
COc1ccccc1CC(=O)NNC(=O)c1ccco1		inactive: 0.645%
Cc1ccc(-c2nnc(NC(=O)c3ccc([N+](=O)[O-])o3)o2)c(C)c1	inconclusive: 26.9 µM [inhibitor, single point]	
Cc1ccc(S(=O)(=O)N2CCOCC2)cc1C(=O)Nc1ccc(N2CCCCCC2)cc1	inconclusive: 23.9 µM [inhibitor, single point]	
CCCCc1nn2c(=O)cc(COC(=O)c3ccc4c(c3)OCO4)nc2s1		inactive: -7.67%
CC(C)(C)CC(=O)Nc1nnc(CCc2ccccc2)s1	inconclusive: 23.9 µM [inhibitor, partial curve]	
O=C1[C@@H]2[C@H](C(=O)N1O)[C@H]1C=C[C@@H]2C1		inactive: 5.47%
CC(CCc1ccccc1)NS(=O)(=O)c1ccc(Cl)c(C(=O)O)c1 (centres undefined)		inactive: 1.59%
CCc1nn2c(NCCCO)cc(C)nc2c1-c1ccc(F)cc1		inactive: -30%
O=C(Nc1ccc2ccccc2c1)c1cnccn1	inconclusive: 0.953 µM [inhibitor, partial curve]	
Cc1ccc(NC(=S)N/N=C/c2c(C)[nH]c3ccccc23)cc1	active: 19 µM	
Cc1cc(OC(=O)c2ccccc2Cl)ccc1N1C(=O)CCC1=O	active: 5.36 µM	
O=C(Nc1ncc(Cl)cn1)c1cccs1	inconclusive: 26.9 µM [inhibitor, single point]	
CCCCCCC(=O)Nc1ccc(Cl)cn1	inconclusive: 21.3 µM [inhibitor, single point]	
C/C(=N\NC(=O)c1ccc(O)cc1)c1ccc(N2CCOCC2)cc1	inconclusive: 26.9 µM [inhibitor, partial curve, poor fit]	
Nc1nnc(CSCc2ccc(Cl)cc2Cl)s1	inconclusive: 16.9 µM [inhibitor, partial curve]	
CCOC(=O)c1c(NC(=S)N2CCCCC2)sc2c1CCN(C(=O)OCC)C2		inactive: -3.83%
CC1(C)CC(=O)c2cc(NC(=O)c3ccccc3)c(=O)oc2C1	inconclusive: 19 µM [inhibitor, partial curve]	
CCN(CC)c1ccc(NC(=S)NC(=O)c2cccs2)cc1	active: 15.1 µM	
CC1=Nc2ccccc2/C1=C/c1nc(-c2ccc(C)s2)oc1O	inconclusive: 6.75 µM [inhibitor, partial curve, poor fit]	
CN(C)CC(=O)N1c2ccccc2CCc2ccc(NC(=O)c3ccc(N)cc3)cc21	inconclusive: 37.9 µM [inhibitor, single point]	
CCOC(=O)Cc1csc(Nc2ccc(Cl)cc2)n1	inconclusive: 33.8 µM [inhibitor, single point]	
CC1Cc2ccccc2N1C1=NS(=O)(=O)c2ccccc21 (centres undefined)	inconclusive: 26.9 µM [inhibitor, partial curve]	

Structure (SMILES)	Potency	activity change, negative = inhibition
N#Cc1ccccc1CSc1nnc(Cc2ccccc2)o1	inconclusive: 30.1 µM [inhibitor, partial curve, poor fit]	
C=CCc1c(C)nc(-c2ccccc2)nc1N/N=C(\C)c1ccc(N)cc1	active: 12 µM	
N#CC1(NC(=O)COC(=O)CNC(=O)c2sc3ccccc3c2Cl)CCCCC1	inconclusive: 23.9 µM [inhibitor, single point]	
COc1ccc(/C=N/Nc2nc(=O)[nH]nc2C)cc1OC	inconclusive: 30.1 µM [inhibitor, partial curve, poor fit]	
Cc1cc(=O)oc2cc(NC(=O)CC3(CC(=O)O)CCCC3)ccc12	inconclusive: 37.9 µM [inhibitor, partial curve, poor fit]	
CC(=O)c1ccc(NC(=O)c2sc3nc4n(c(=O)c3c2C)CCCCC4)cc1	inconclusive: 23.9 µM [inhibitor, partial curve]	
Cc1ccc2oc(C(=O)N3CCC(c4nc5ccccc5s4)CC3)c(C)c2c1	inconclusive: 12 µM [inhibitor, partial curve, poor fit]	
Cc1nc2ccccc2n1CC(O)COCC1CC=CCC1 (centres undefined)	inconclusive: 6.75 µM [inhibitor, partial curve, poor fit]	
Cc1ccc(-c2nnc(N3CCCCCC3)c3ccccc23)cc1	active: 19 µM	
O=c1c(-c2ccccc2)c1-c1ccccc1	inconclusive: 37.9 µM [inhibitor, partial curve, poor fit]	
O=C(CNc1cc(S(=O)(=O)N2CCCC2)ccc1OCC(F)(F)F)Nc1cc(Cl)cc(Cl)c1		inactive: 0.261%
Cc1ccc2nc(NC(=O)CCCc3nc4ccccc4s3)sc2c1	active: 16.9 µM	
Cc1ccc(N2C(=O)c3ccccc3C2C(=O)c2ccc(C)c(C)c2O)cc1 (centres undefined)		inactive: -11.1%
Cc1ccc(-n2[nH]c(C)c(C=NCc3ccncc3)c2=O)cc1	inconclusive: 23.9 µM [inhibitor, single point]	
CCOC(=O)c1ccc(NC(=O)Nc2ccc(F)cc2)cc1	active: 10.7 µM	
COc1ccc(/C=C2\SC(=S)N(CCC(=O)NCCCn3ccnc3)C2=O)cc1	active: 19 µM	
COc1ccc(OC)c([C@@H]2Nc3ccc(C(=O)O)cc3[C@@H]3C=CC[C@@H]32)c1	inconclusive: 15.1 µM [inhibitor, partial curve, poor fit]	
COc1ccccc1OCC(=O)Nc1ncc(C)s1	active: 2.39 µM	
O=C(Cc1c[nH]c2ccccc12)NCc1ccc(Cl)cc1	inconclusive: 19 µM [inhibitor, partial curve]	
COc1ccc(NC(=O)CSCc2ccccc2C)cc1	inconclusive: 37.9 µM [inhibitor, single point]	
Cc1ccc(NC(=O)c2ccc(NC(=O)C3CCCCC3C(=O)O)cc2)cc1 (centres undefined)	active: 16.9 µM	
CCc1ccc(CNC(=O)c2ccc(NC(=O)C3=CSCCO3)cc2)cc1		inactive: -10.6%
COc1ccc(C)cc1NC(=O)c1nnn(CC(=O)Nc2c(C)cccc2C)c1N		inactive: -1.97%
CCc1ccc(-c2nnn(Cc3nc4ccccc4s3)n2)cc1	inconclusive: 26.9 µM [inhibitor, single point]	
CCOC(=O)c1cnc2c(ccc3ccccc32)c1N	inconclusive: 1.07 µM [inhibitor, full curve]	

Structure (SMILES)	Potency	activity change, negative = inhibition
CC(C)(C)c1csc(NC(=O)CCc2ccccc2)n1	inconclusive: 21.3 µM [inhibitor, single point]	
COc1ccc(C#Cc2c(C=O)n(C)c3ccccc23)cc1	inconclusive: 15.1 µM [inhibitor, partial curve, poor fit]	
CCOC(=O)c1cc(C)n(CC2CCC(C(=O)Nc3cccc(C(C)=O)c3)CC2)c1C (centres undefined)	inconclusive: 23.9 µM [inhibitor, partial curve, poor fit]	
CC1CCC(NC(=O)c2ccc3c(c2)N(Cc2ccccc2F)C(=O)c2ccccc2S3(=O)=O)CC1 (centres undefined)		inactive: 5.55%
CCOc1ccccc1Oc1ncnc2c1oc1ccccc12		inactive: 6%
COc1ccccc1OCc1nc2ccccc2n1Cc1ccccc1	inconclusive: 19 µM [inhibitor, partial curve]	
O=C(O)c1cccc(-n2cccc2/C=C\[N+](=O)[O-])c1	inconclusive: 10.7 µM [inhibitor, partial curve, poor fit]	
CCCCn1c(SCC(=O)c2ccccc2)nc2sc3c(c2c1=O)CCCC3		inactive: 6.61%
Cc1ccc(NCc2cc3cc4c(cc3n(CC(=O)Nc3ccc(C)cc3)c2=O)OCCO4)cc1	inconclusive: 10.7 µM [inhibitor, partial curve]	
COc1ccc(N(C(=O)CNC(=O)c2cccs2)C(C(=O)NCC2CCCO2)c2ccccc2)c(OC)c1 (centres undefined)		inactive: -0.596%
O=C(COc1ccc2ccc(=O)oc2c1)NCCCN1CCCC1=O		inactive: -0.299%
O=C(c1ccco1)N1CCN(c2ncnc3c2[nH]c2ccc(Cl)cc23)CC1	inconclusive: 30.1 µM [inhibitor, partial curve, poor fit]	
O=C(OCc1nnc(-c2ccccc2)o1)c1ccco1	active: 23.9 µM	
O=C(O)COc1ccc(/C=C/c2nc(-c3ccccc3O)n[nH]2)cc1	active: 10.7 µM	
CCOc1ccc(S(=O)(=O)c2cc3cccc(OCC)c3oc2=O)cc1		inactive: 5.87%
S=c1[nH]nc(-c2ccco2)n1/N=C/C=C/c1ccccc1	inconclusive: 30.1 µM [inhibitor, partial curve, poor fit]	
COC1CCN(C(=O)c2ccc3oc(C(C)C)nc3c2)CC1		inactive: -15.8%
Cc1cc(C(=O)N/N=C2\CCCc3ccccc32)c(C)o1	inconclusive: 19 µM [inhibitor, partial curve, poor fit]	
CC(=O)c1ccc(NC(=O)c2nc(-c3ccccc3)n(-c3ccc(C)cc3)n2)cc1	active: 15.1 µM	
O=C(Cc1ccccc1[N+](=O)[O-])NCc1ccc(Cl)cc1Cl	active: 6.01 µM	
CC1(CC(=O)N/N=C/c2ccc(-c3cccc(C(F)(F)F)c3)o2)OCCO1	inconclusive: 26.9 µM [inhibitor, single point]	
Clc1ccc2nc(-c3ccc(N4CCOCC4)cc3)c(Nc3ccccc3)n2c1	inconclusive: 2.69 µM [inhibitor, partial curve]	
c1ccc2c(c1)[nH]c1c(N3CCC4(CC3)OCCO4)ncnc12		inactive: 0.885%
COCCNC(=S)N1CCC(c2nc(-c3ccc(N(C)C)cc3)no2)CC1	inconclusive: 23.9 µM [inhibitor, single point]	
